T1: RBFOX1 RRM (Homo sapiens, UniProt Q9NWB1 109-208)
T1 sequence: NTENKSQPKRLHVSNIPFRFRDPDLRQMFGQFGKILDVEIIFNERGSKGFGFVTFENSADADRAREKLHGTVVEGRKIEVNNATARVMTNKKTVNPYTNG

B1: GGCACGA (DNA:RNA)
RNA: GGGAGACCGGAAUUCAGAUUGUCCGGCACGAUUAAAUCCCGUCGUAGCCACCA
DNA 1: CAATCTGAATTCCGGTCTCCC
DNA 2: TGGTGGCTACGACGGGATT
B2: GCCACAU (DNA:RNA)
RNA: B1 RNA with G26C, G30A, A31U
DNA 1: CAATCTGAATTCCGGTCTCCC
DNA 2: TGGTGGCTACGACGGGATT
B3: AUACGUC (DNA:RNA)
RNA: GGGAGACCGGAAUUCAGAUUGUCCAUACGUCUUAAAUCCCGUCGUAGCCACCA
DNA 1: CAATCTGAATTCCGGTCTCCC
DNA 2: TGGTGGCTACGACGGGATT
B4: GCUGCCG (DNA:RNA)
RNA: B1 RNA with G26C, C27U, A28G, G30C, A31G
DNA 1: CAATCTGAATTCCGGTCTCCC
DNA 2: TGGTGGCTACGACGGGATT
B5: GACAGAA (DNA:RNA)
RNA: B1 RNA with G26A, C29G, G30A
DNA 1: CAATCTGAATTCCGGTCTCCC
DNA 2: TGGTGGCTACGACGGGATT
B6: UCGUUCA (DNA:RNA)
RNA: B1 RNA with G25U, G26C, C27G, A28U, C29U, G30C
DNA 1: CAATCTGAATTCCGGTCTCCC
DNA 2: TGGTGGCTACGACGGGATT
B7: CAGCAGC (DNA:RNA)
RNA: B3 RNA with A25C, U26A, A27G, G29A, U30G
DNA 1: CAATCTGAATTCCGGTCTCCC
DNA 2: TGGTGGCTACGACGGGATT
B8: GUAUUUG (DNA:RNA)
RNA: B3 RNA with A25G, C28U, G29U, C31G
DNA 1: CAATCTGAATTCCGGTCTCCC
DNA 2: TGGTGGCTACGACGGGATT
B9: UGGACGA (DNA:RNA)
RNA: B1 RNA with G25U, C27G
DNA 1: CAATCTGAATTCCGGTCTCCC
DNA 2: TGGTGGCTACGACGGGATT
B10: GAUGCCU (DNA:RNA)
RNA: B1 RNA with G26A, C27U, A28G, G30C, A31U
DNA 1: CAATCTGAATTCCGGTCTCCC
DNA 2: TGGTGGCTACGACGGGATT
B11: CCCCUUA (DNA:RNA)
RNA: B3 RNA with A25C, U26C, A27C, G29U, C31A
DNA 1: CAATCTGAATTCCGGTCTCCC
DNA 2: TGGTGGCTACGACGGGATT
B12: AGGCCCG (DNA:RNA)
RNA: B3 RNA with U26G, A27G, G29C, U30C, C31G
DNA 1: CAATCTGAATTCCGGTCTCCC
DNA 2: TGGTGGCTACGACGGGATT
B13: AAUCUUA (DNA:RNA)
RNA: B3 RNA with U26A, A27U, G29U, C31A
DNA 1: CAATCTGAATTCCGGTCTCCC
DNA 2: TGGTGGCTACGACGGGATT
B14: UAAGGUU (DNA:RNA)
RNA: B3 RNA with A25U, U26A, C28G, C31U
DNA 1: CAATCTGAATTCCGGTCTCCC
DNA 2: TGGTGGCTACGACGGGATT
B15: ACAUUAU (DNA:RNA)
RNA: B3 RNA with U26C, C28U, G29U, U30A, C31U
DNA 1: CAATCTGAATTCCGGTCTCCC
DNA 2: TGGTGGCTACGACGGGATT
B16: AGAGAUA (DNA:RNA)
RNA: B3 RNA with U26G, C28G, G29A, C31A
DNA 1: CAATCTGAATTCCGGTCTCCC
DNA 2: TGGTGGCTACGACGGGATT
B17: GCUAAGG (DNA:RNA)
RNA: B1 RNA with G26C, C27U, C29A, A31G
DNA 1: CAATCTGAATTCCGGTCTCCC
DNA 2: TGGTGGCTACGACGGGATT
B18: GGAAACG (DNA:RNA)
RNA: B1 RNA with C27A, C29A, G30C, A31G
DNA 1: CAATCTGAATTCCGGTCTCCC
DNA 2: TGGTGGCTACGACGGGATT
B19: UGCCUCC (DNA:RNA)
RNA: B3 RNA with A25U, U26G, A27C, G29U, U30C
DNA 1: CAATCTGAATTCCGGTCTCCC
DNA 2: TGGTGGCTACGACGGGATT
B20: GGAGUCA (DNA:RNA)
RNA: B1 RNA with C27A, A28G, C29U, G30C
DNA 1: CAATCTGAATTCCGGTCTCCC
DNA 2: TGGTGGCTACGACGGGATT
B21: UUGCUAU (DNA:RNA)
RNA: B3 RNA with A25U, A27G, G29U, U30A, C31U
DNA 1: CAATCTGAATTCCGGTCTCCC
DNA 2: TGGTGGCTACGACGGGATT
B22: AUCGGCG (DNA:RNA)
RNA: B3 RNA with A27C, C28G, U30C, C31G
DNA 1: CAATCTGAATTCCGGTCTCCC
DNA 2: TGGTGGCTACGACGGGATT
B23: GGAAAAU (DNA:RNA)
RNA: B1 RNA with C27A, C29A, G30A, A31U
DNA 1: CAATCTGAATTCCGGTCTCCC
DNA 2: TGGTGGCTACGACGGGATT
B24: UCACUGA (DNA:RNA)
RNA: B3 RNA with A25U, U26C, G29U, U30G, C31A
DNA 1: CAATCTGAATTCCGGTCTCCC
DNA 2: TGGTGGCTACGACGGGATT
B25: CCCAGGG (DNA:RNA)
RNA: B1 RNA with G25C, G26C, C29G, A31G
DNA 1: CAATCTGAATTCCGGTCTCCC
DNA 2: TGGTGGCTACGACGGGATT
B26: CUGCUAA (DNA:RNA)
RNA: B3 RNA with A25C, A27G, G29U, U30A, C31A
DNA 1: CAATCTGAATTCCGGTCTCCC
DNA 2: TGGTGGCTACGACGGGATT
B27: AUAGACG (DNA:RNA)
RNA: B3 RNA with C28G, G29A, U30C, C31G
DNA 1: CAATCTGAATTCCGGTCTCCC
DNA 2: TGGTGGCTACGACGGGATT
B28: CGUGGGG (DNA:RNA)
RNA: B1 RNA with G25C, C27U, A28G, C29G, A31G
DNA 1: CAATCTGAATTCCGGTCTCCC
DNA 2: TGGTGGCTACGACGGGATT
B29: GUGACGC (DNA:RNA)
RNA: B1 RNA with G26U, C27G, A31C
DNA 1: CAATCTGAATTCCGGTCTCCC
DNA 2: TGGTGGCTACGACGGGATT
B30: CGCGCAU (DNA:RNA)
RNA: B1 RNA with G25C, A28G, G30A, A31U
DNA 1: CAATCTGAATTCCGGTCTCCC
DNA 2: TGGTGGCTACGACGGGATT
B31: GGAUCGG (DNA:RNA)
RNA: B1 RNA with C27A, A28U, A31G
DNA 1: CAATCTGAATTCCGGTCTCCC
DNA 2: TGGTGGCTACGACGGGATT

Substitutions are numbered along the chain they refer to; changes in the protein carry UniProt numbers. The list shows a part of the results.

In PMC9911399, “Two distinct binding modes provide the RNA-binding protein RbFox with extraordinary sequence specificity” one finds binding signal data, which are given here for 31 molecules.

This assay deals with T1, RBFOX1 RRM. The experiment in a line: EMSA; HiTS-Eq, 1 nM pool, 10 min; buffer printed only for the single-RNA assays: 10 mM Tris pH 7.5, 150 mM NaCl, 3.4 mM EDTA, 0.001% NP-40, 30 C. The following applies: tags: His6 N-terminal (pET28a); label: 5' 32P. The essentials: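 Purified RbFox RRM (wild type or mutant) was equilibrated for 10 min in 50 µL with 1 nM of a 5′-radiolabelled pool of RNA with 7 randomized nucleotides, its flanks annealed to DNA oligonucleotides, across increasing protein concentrations. Free RNA was separated by 8% native PAGE, excised, reverse-transcribed, PCR-barcoded and sequenced on an Illumina HiSeq 2500. Relative association constants came from read-count changes of each variant against the control reaction, normalised to the cognate motif.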
Take B1: the binding signal is 0.0261 KA relative to UGCAUGU.

B2: the binding signal is 0.00688 KA relative to UGCAUGU.

Turning to B3, the binding signal is 0.00422 KA relative to UGCAUGU.

Regarding B4, the binding signal was 0.0204 KA relative to UGCAUGU.

With B5, the binding signal was 0.00874 KA relative to UGCAUGU.

For the molecule B6, the binding signal was 0.0126 KA relative to UGCAUGU.

Take B7: the binding signal was 0.00706 KA relative to UGCAUGU.

On to B8, for which the binding signal is 0.0142 KA relative to UGCAUGU.

On to B9, for which the binding signal is 0.0212 KA relative to UGCAUGU.

On to B10, for which the binding signal is 0.0182 KA relative to UGCAUGU.

Consider B11, for which the binding signal is 0.0049 KA relative to UGCAUGU.

As to B12, the binding signal is 0.0142 KA relative to UGCAUGU.

For B13, the binding signal is 0.00267 KA relative to UGCAUGU.

As for B14, the binding signal was 0.0143 KA relative to UGCAUGU.

For the molecule B15, the binding signal is 0.000894 KA relative to UGCAUGU.

On to B16, for which the binding signal was 0.00687 KA relative to UGCAUGU.

Take B17: the binding signal was 0.0109 KA relative to UGCAUGU.

For B18, the binding signal is 0.0117 KA relative to UGCAUGU.

For B19, the binding signal is 0.00846 KA relative to UGCAUGU.

On to B20, for which the binding signal was 0.00993 KA relative to UGCAUGU.

With B21, the binding signal was 0.0124 KA relative to UGCAUGU.

For B22, the binding signal is 0.011 KA relative to UGCAUGU.

For B23, the binding signal was 0.00757 KA relative to UGCAUGU.

B24: the binding signal was 0.0105 KA relative to UGCAUGU.

On to B25, for which the binding signal was 0.00478 KA relative to UGCAUGU.

Regarding B26, the binding signal was 0.00924 KA relative to UGCAUGU.

For B27, the binding signal is 0.00421 KA relative to UGCAUGU.

On to B28, for which the binding signal is 0.00558 KA relative to UGCAUGU.

In the case of B29, the binding signal is 0.0147 KA relative to UGCAUGU.

On to B30, for which the binding signal is 0.0125 KA relative to UGCAUGU.

For the molecule B31, the binding signal is 0.0132 KA relative to UGCAUGU.
